Data published in publication PMC4336329 (PLoS ONE, 2015).
Among all 310,000 compounds or so, about 2,200 (0.71%) showed an effect of 50% or more. The effect is printed as a negative number. The list shows a part of the results.

Molecular target: human ether-à-go-go-related gene (hERG) potassium channel (human, UniProt Q12809)
Experiment: primary screen, population patch clamp on CHO cells stably expressing hERG

Sequence of human ether-à-go-go-related gene (hERG) potassium channel (Q12809 whole entry, looked up): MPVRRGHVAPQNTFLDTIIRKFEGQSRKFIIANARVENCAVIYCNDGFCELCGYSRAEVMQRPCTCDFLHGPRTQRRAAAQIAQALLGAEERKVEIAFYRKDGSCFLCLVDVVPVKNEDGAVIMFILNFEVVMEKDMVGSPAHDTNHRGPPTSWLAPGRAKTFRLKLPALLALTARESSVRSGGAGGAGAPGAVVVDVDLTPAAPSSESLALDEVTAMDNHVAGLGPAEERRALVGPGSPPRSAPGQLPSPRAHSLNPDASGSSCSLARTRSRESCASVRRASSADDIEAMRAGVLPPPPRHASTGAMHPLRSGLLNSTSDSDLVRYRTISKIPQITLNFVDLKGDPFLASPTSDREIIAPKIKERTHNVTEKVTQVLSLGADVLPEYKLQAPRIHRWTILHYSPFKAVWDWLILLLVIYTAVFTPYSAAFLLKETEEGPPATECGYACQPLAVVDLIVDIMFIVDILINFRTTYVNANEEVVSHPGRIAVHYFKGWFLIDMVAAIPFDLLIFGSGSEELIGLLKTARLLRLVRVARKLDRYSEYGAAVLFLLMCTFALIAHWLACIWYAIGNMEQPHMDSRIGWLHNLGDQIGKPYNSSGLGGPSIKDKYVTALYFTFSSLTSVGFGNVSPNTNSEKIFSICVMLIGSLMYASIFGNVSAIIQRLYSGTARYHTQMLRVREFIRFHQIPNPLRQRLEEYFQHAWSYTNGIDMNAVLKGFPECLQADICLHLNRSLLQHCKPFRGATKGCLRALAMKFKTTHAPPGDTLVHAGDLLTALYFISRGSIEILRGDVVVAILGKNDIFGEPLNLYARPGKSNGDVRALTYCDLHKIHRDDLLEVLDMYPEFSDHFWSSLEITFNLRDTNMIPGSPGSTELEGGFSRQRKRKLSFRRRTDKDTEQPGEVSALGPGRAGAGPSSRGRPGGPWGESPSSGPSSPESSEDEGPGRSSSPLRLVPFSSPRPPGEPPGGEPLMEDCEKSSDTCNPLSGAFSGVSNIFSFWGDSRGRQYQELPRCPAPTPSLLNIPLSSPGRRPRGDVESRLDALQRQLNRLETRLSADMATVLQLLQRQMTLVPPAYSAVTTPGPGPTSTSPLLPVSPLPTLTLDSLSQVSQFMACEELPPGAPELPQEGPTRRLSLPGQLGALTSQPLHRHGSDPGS

| Structure (SMILES) | hERG current change (%, negative = inhibition) at 1uM |
| --- | --- |
| Cc1nn(-c2ccccc2)c(C)c1NC(=O)c1ccc(S(=O)(=O)N2CCCC2)cc1 | 7.58% |
| CC(C)c1ccc(NC(=S)Nc2cccc3ccccc23)cc1 | 6.52% |
| O=C(CN(C(=O)c1nsc(Cl)c1Cl)c1ccc(F)cc1)NC1CCCC1 | 7.51% |
| Cc1nn(CCO)c2nc(-c3cccs3)cc(C(F)(F)F)c12 | 8.51% |
| [Br-].c1ccc(-c2c[n+]3c(n2-c2ccccc2)SCC3)cc1 | 4.69% |
| CN(Cc1cnn(C)c1)C(=O)C1CCC(=O)N(Cc2cccc(C(F)(F)F)c2)C1 (stereo not shown) | 9.39% |
| Cc1cccnc1NC(=O)c1ccc(S(=O)(=O)N2CCC(C)CC2)cc1 | -2.92% |
| COc1cc(/C=C/C(=O)O)cc(S(=O)(=O)Nc2ccccc2Oc2ccccc2)c1OC | -7.73% |
| Cn1c(N)c(C(=O)c2ccc(Oc3ccccc3)cc2)c(=O)n(C)c1=O | 3.09% |
| O=C1C=C(NCc2ccc(Cl)c(Cl)c2)C2(CCCCC2)O1 | 12.3% |
| Cc1ccc(NC(=O)CSc2nc(CSc3ccc(C)cc3)cc(=O)[nH]2)cc1 | 11.9% |
| COC(=O)CNC(=O)CSc1nc2sc(-c3ccccc3)cc2c(=O)n1-c1ccccc1 | 11.6% |
| Cl.O=C(O)/C=C/c1ccc(Cn2ccnc2)cc1 | 1.68% |
| CCn1ccc(C(=O)Nc2ccccc2SC)n1 | -4.01% |
| Cc1cc(C(=O)N2CC=C(c3ccccc3)CC2)c2ccccc2n1 | -15% |
| Cc1ccc(Nc2nc(NCC3CCCO3)nc(N)c2[N+](=O)[O-])cc1 (stereo not shown) | 17.7% |
| Cc1cc2cc(CN3C(=O)c4ccccc4C3=O)ccc2[nH]1 | 6.89% |
| Cc1ccc(/C=C/C(=O)N2CCC(Cc3ccccc3)CC2)cc1 | 9.28% |
| O=C(Nc1ccccc1C(=O)N1CCCC1)c1cccc(S(=O)(=O)N2CCCCCC2)c1 | 11.3% |
| C=CCOC(=O)C1=C(C)NC(=O)NC1/C=C/c1ccccc1OC (stereo not shown) | 13.3% |
| CC(=O)N1N=C(c2ccc(C(C)(C)C)cc2)OC1(C)C | -0.346% |
| COc1ccc(NC2CS(=O)(=O)CC2OC(=O)c2ccc(F)cc2)cc1 (stereo not shown) | 2.12% |

| Structure (SMILES) | hERG current change (%, negative = inhibition) at 1uM |
| --- | --- |
| O=C(Nc1ccccc1)OCN1C(=O)c2ccccc2C1=O | 2.8% |
| Cc1ccc(Cc2c[nH]c(=S)s2)cc1 | 17.7% |
| Cc1cccc(NC(=O)COc2ccc(Br)cc2/C=N/O)c1 | 13.8% |
| CC(C)n1cnc2c(NCc3ccccc3)nc(NCc3ccccc3)nc21 | 10.4% |
| CCCc1n[nH]c(=O)c2c1nnn2Cc1ccccc1 | 9.72% |
| O=C(c1ccc(Cl)cc1Cl)N1CCc2ccccc21 | 6.45% |
| CCOc1cc(/C=N/Nc2cc(C)nc3ccc(C)cc23)ccc1O | 16.8% |
| O=C(CNC(=O)c1ccccc1F)N/N=C/c1ccc2c(c1)OCO2 | 4.9% |
| CCOC(=O)c1c(C)nc2c(c1-c1cc(OC)ccc1OC)C(=O)CC(C)(C)C2 | 13.7% |
| COc1ccc(NC(=S)Nc2ccc(F)cc2)cc1 | 15.3% |
| CSCC[C@H](NC(=O)[C@H](Cc1ccccc1)n1c(=O)[nH]c2ccccc2c1=O)C(=O)N1CCC[C@H]1C(=O)O | -10.3% |
| O=C(NC(=S)N1CCN(c2ccc(F)cc2)CC1)C12CC3CC(CC(C3)C1)C2 | 7.92% |
| CCOC(=O)c1[nH]c2ccc(OC)cc2c1NC(=O)N1CCOCC1 | 9.75% |
| CC(C)c1ccc(/C=N/NC(=O)CC(=O)NCc2ccccc2)cc1 | 10.9% |
| Cl.NCC(O)CN1CCN(Cc2ccccc2)CC1 (stereo not shown) | 12.2% |
| Clc1ccc(-c2nnc(CSc3nnc(-c4cccs4)n3Cc3ccccc3)o2)cc1 | -0.743% |
| COc1ccc(NC(=O)CN(C)C(=O)c2ccc(-c3ccccc3Cl)o2)cc1 | 1.28% |
| O=C(CCc1nnc(CCc2ccccc2)o1)N1CCCC1c1nccs1 (stereo not shown) | 3.53% |
| O=C(Nc1ccc(-c2nc3ccc(NC(=O)c4cccs4)cc3[nH]2)cc1)c1cccs1 | 13.3% |
| Cc1ccc(N2CCN(C(=O)NC3CCCCC3)CC2)c(C)c1 | 10.5% |
| O=C(CN1CCN(S(=O)(=O)c2ccccc2)CC1)NC(=O)NCc1ccccc1 | 13% |
| CC1(C)CC(Cc2nc(=S)[nH][nH]2)C(=O)O1 (stereo not shown) | 16.3% |

| Structure (SMILES) | hERG current change (%, negative = inhibition) at 1uM |
| --- | --- |
| COCCn1c(=O)[nH]c(=O)c2c1nc(-c1cc(Br)c3c(c1)OCO3)n2Cc1ccccc1 | -2.58% |
| O=C(NC(=S)Nc1ccccc1N1CCCC1)c1cccs1 | 4.24% |
| COc1ccc(-c2cc3ccccc3n2CC(O)CN2CCC(C)CC2)cc1.O=C(O)C(=O)O (stereo not shown) | -49.8% |
| CN(C(=O)CSc1nc2ccc([N+](=O)[O-])cc2s1)C1CCS(=O)(=O)C1 (stereo not shown) | -26% |
| COc1ccc(N2CCN(C(=O)C3=NNC(=O)CC3)CC2)cc1 | 9.6% |
| COc1ccc(OC)c(C2C3=C(CCCC3=O)NC3=C2C(=O)CCC3)c1 | 6.99% |
| Cc1cc(N)ccc1N=Nc1c(C)n(C)n(-c2ccccc2)c1=O | 3.75% |
| CCCn1c(N)c(N(CCOC)C(=O)CSCC(=O)Nc2ccc(C)cc2)c(=O)[nH]c1=O | -7.52% |
| CCOC(=O)CSc1nnc(Cc2ccccc2)n1-c1cccc(Cl)c1 | -16.6% |
| CNC(=O)c1ccc(CNC(=O)OCC(F)(F)F)cc1 | 4.96% |
| CCOc1cc(S(=O)(=O)N2CCN(S(=O)(=O)CC)CC2)c(OCC)cc1-n1cnnn1 | 11.3% |
| CC(C)(C)SCCNC(=O)CSCc1ccc([N+](=O)[O-])cc1 | -48.1% |
| CC(/C=N/Nc1nc(C)cc(=O)[nH]1)=C\c1ccccc1 | -2.99% |
| Cc1cc(C)n(C(=O)N(c2ccccc2)c2ccccc2)n1 | 14.6% |
| NC(=O)Cn1cc(/C=N\NS(=O)(=O)c2ccc(Cl)cc2)c2ccccc21 | 1.24% |
| C=CCOc1c(Br)cc(/C=N/n2c(CC)n[nH]c2=S)cc1Br | 11.7% |
| CCOC(=O)N1CCN(C(=O)COC(=O)c2cc(Cl)c(O)c(Cl)c2)CC1 | 14.6% |
| Cc1ccc(OCC(=O)N/N=C\c2ccc(O)c([N+](=O)[O-])c2)c([N+](=O)[O-])c1 | 8.26% |
| CCCC(=O)Nc1nc2ccc(NC(=O)c3ccc(Br)o3)cc2s1 | 7.75% |
| COc1ccc(NC(=O)CC2SC(N)=NC2=O)c([N+](=O)[O-])c1 (stereo not shown) | 24.4% |
| Cc1cc(=O)oc2cc(NC(=O)c3cccc(F)c3)ccc12 | 8.86% |
| CNC(=O)NC(=O)C(OC(=O)c1cccc(S(=O)(=O)N2CCCCC2)c1)c1ccccc1 (stereo not shown) | 11.5% |

| Structure (SMILES) | hERG current change (%, negative = inhibition) at 1uM |
| --- | --- |
| Cc1cccc(C)c1OCC(O)CN1CCN(c2ccccn2)CC1 (stereo not shown) | -1.11% |
| CC(C)CN(C(=O)CSc1nncn1C)C1CCS(=O)(=O)C1 (stereo not shown) | -0.893% |
| CCSc1n[nH]c2nc3c(c(=O)n12)C1(CCCC1)Cc1ccccc1-3 | 17% |
| O=C(NCc1ccc(Cl)cc1)C1CCCN(S(=O)(=O)c2cnc[nH]2)C1 (stereo not shown) | 12.3% |
| C/C(=N\NC(=O)c1cccnc1)c1ccc(Br)cc1 | -0.376% |
| Nc1ccc(Br)cc1C(=O)O | 6.36% |
| O=C(CN1C(=O)c2ccccc2C1=O)NCc1ccc(F)cc1 | 13.1% |
| CC1=C(C(=O)N(C)C)C(c2cccc(Cl)c2)NC(=O)N1 (stereo not shown) | 14.2% |
| COc1ccc(C[C@@H]2CN3C(=NC[C@@H]3C)N2C[C@H](C)NC(=O)c2ccc(C)c(Br)c2)cc1 | -56.4% |
| COc1ccccc1N(CC(=O)NC1CCCC1)C(=O)c1csnn1 | 0.0012% |
| COc1ccc(N2C(=O)CC(NCc3cccc(F)c3)C2=O)cc1 (stereo not shown) | 7.93% |
| COc1ccccc1C(=O)NCC(=O)OCC(=O)Nc1cccc(S(=O)(=O)N2CCCCCC2)c1 | 1.17% |
| CC(=NCCO)c1c(O)n(C2CCCCC2)c(=O)[nH]c1=O | 12.5% |
| CC1(N(O)/C=C2\C=CC=CC2=O)CCCCC1=O (stereo not shown) | 10.3% |
| COC(=O)C1=NN(c2ccccc2)C2(S1)S/C(=C\c1ccccc1)C(=O)N2c1ccccc1 (stereo not shown) | 10.4% |
| COc1cc(CNCCN2CCOCC2)ccc1OCC(=O)NC(C)(C)C.Cl | 12.5% |
| COc1ccc(/C=N/NC(=O)CCCOc2ccc(Cl)cc2Cl)cc1 | 20.4% |
| CCOC(=O)C1=C(N)Oc2cc(C)n(C)c(=O)c2C1c1ccncc1 (stereo not shown) | 7.92% |
| Oc1ccc(Br)cc1/C=N/Nc1nc(N2CCCCC2)nc(N2CCOCC2)n1 | 12.6% |
| Cc1c(C(=O)Nc2ccc3oc(-c4cccnc4)nc3c2)oc2ccccc12 | -7.02% |
| CC(C)NCC#CCOc1ccc(Cl)cc1.O=C(O)C(=O)O | 2.36% |
| CCCCOc1ccc(NC(=O)CN2CCN(Cc3ccccc3)CC2)cc1 | 1.72% |
